Measured values as given in PubChem BioAssay AID1347434 (National Center for Advancing Translational Sciences (NCATS), 2020).
Out of some 1,200 compounds screened, about 30 (2%) were called active. Roughly 23% stayed inconclusive and do not appear here. Calls follow the shape of the dose curve; as a rule, active = well fitted inhibition curve with a large enough effect; inconclusive = small, poorly fitted or top-dose-only effect; inactive = flat fitted curve, though single readings scatter. The list shows a part of the results.

molecular target: Single-stranded DNA cytosine deaminase (Homo sapiens) (UniProt Q9GZX7); assay: Confirmatory qHTS assay for inhibitors of Activation Induced Cytidine Deaminase (AID): AID signals; details: recombinant AID, FRET deamination/UDG coupled fluorescence, 4 h; series mostly up to 115 µM; activity, negative = inhibition: at the top concentration
How it was run: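 Read 1 (AID) was measured at 540 ex/590 em after a 30 min NaOH step. The reaction was AID (1 uM, 4/3x stock) with UDG, compound at final 7.32 nM - 114 uM for 10 min, then DJC20/DJC23 substrate for 4 hr at room temperature. A UDG read at 560/665 serves as counterscreen.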
% is scaled to controls: 0 for no effect and ±100 for the full control effect.

Chain of UniProt Q9GZX7 (Q9GZX7 whole entry, looked up): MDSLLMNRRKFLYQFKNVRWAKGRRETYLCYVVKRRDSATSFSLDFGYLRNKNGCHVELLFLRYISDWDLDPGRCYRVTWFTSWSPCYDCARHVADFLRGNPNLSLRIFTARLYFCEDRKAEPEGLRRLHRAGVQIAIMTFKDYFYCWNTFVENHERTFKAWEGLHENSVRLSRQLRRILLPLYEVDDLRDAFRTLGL

activity, negative = inhibition, inactive:
Cc1cccc(NC(=O)c2oc3c(c2C)-c2[nH]ncc2CC3)c1C 35.6%
Cc1cccc(C)c1-n1ncc(C(=O)NCc2ccc3c(c2)OCO3)c1C1CCN(C(=O)OC(C)(C)C)CC1 -16%
CCn1c(=O)cc(OCC(=O)N2CCN(c3cccc(Cl)c3)CC2)c2ccccc21 -13.2%
COc1ccc(C(=O)NCCn2cc(SCC(=O)Nc3ccc(F)cc3)c3ccccc32)cc1 4.45%
CCOc1ccccc1NC(=O)CSC1=Nc2ccccc2C2=NC(CC(=O)NCc3ccc4c(c3)OCO4)C(=O)N12 (stereo not given) -4.51%
COCCCNC(=O)c1oc2c(c1C)-c1nn(Cc3cccc(Cl)c3)cc1CC2 -16.9%
CCN(CCCNC(=O)c1cc2c(=O)n(C)c3ccccc3c2s1)Cc1ccccc1 -25.3%
Cc1ccc2c(c1)C(c1ccc(F)cc1)N(C(=O)COc1ccc(Cl)cc1Cl)CC(=O)N2 (stereo not given) -5.86%
Cc1[nH]c2ccccc2c1C1(O)C(=O)N(Cc2ccccc2Cl)c2ccccc21 (stereo not given) -8.59%
Cc1ccc(-c2cn(-c3cccc(Cl)c3)c(S(=O)(=O)CC(=O)Nc3cccc(C)c3)n2)cc1 -17.8%
CCn1cc(C(=O)NCCCN2CCCC(C)C2)c(=O)c2cc(S(=O)(=O)N(C)C3CCCCC3)ccc21 (stereo not given) -10.5%
Cc1nc2nc(SCC(=O)NC3CCC(C)CC3)nn2c(C)c1Cc1ccccc1 (stereo not given) -11%
CCCCN(CCCC)CCNC(=O)c1cn(CC)c2ccc(S(=O)(=O)N(C)C3CCCCC3)cc2c1=O -18.3%
CCOc1ccc(CNCc2c(C(=O)O)n(Cc3ccccc3F)c3cc(OC)ccc23)cc1 1.08%
CCN(CC)c1cc(C)c2cc(NC(=O)c3cccc(OC)c3)ccc2n1 -9.48%
Cc1ccc(/C=C/c2onc(C)c2S(=O)(=O)N2CCC(C(=O)N3CCC(N(C)C(C)C)CC3)CC2)cc1 -13%
COc1ccccc1Cn1cc(C(=O)c2ccccc2)c(=O)c2cc(OC)c(OC)cc21 -24.3%
CC1CCCCN1CCNC(=O)c1ccc(Cn2c(SCc3ccccc3)nc3cccnc32)cc1 (stereo not given) -6.95%
C=Cc1ccc(CN2C(=O)N(c3ccc(C)c(C)c3)S(=O)(=O)c3ccccc32)cc1 9.75%
CCc1ccc(C(c2ccccc2)c2c(C)[nH]c3ccccc23)s1 (stereo not given) 27.8%
CCc1ccccc1NC(=O)CN(c1ccccc1OC)S(=O)(=O)c1ccc(C)cc1 -5.91%
CCn1cc(C(=O)NCCCOC)c(=O)c2cc(S(=O)(=O)N3CCc4ccccc4C3)ccc21 -12.3%
CC1=Nc2cc(C(=O)N3CCC(C)CC3)ccc2Sc2ccc(Cl)cc21 -5.99%
COc1ccccc1C(=O)Nc1ccc(C(=O)OCc2cc(=O)n3nc(C)sc3n2)cc1 2.56%
Cc1cccc(CN2CCC(CNc3ncnc4onc(-c5ccc(Cl)cc5)c34)CC2)c1 -1.56%
Cc1ccccc1NC(=O)c1ccc(N(Cc2ccccc2)S(C)(=O)=O)cc1 0.827%
Cc1ccc(NC(=O)c2c(NC(=O)C(F)(F)F)sc3c2CCCCC3)cc1 5.53%
CCOc1ccc(-c2nc(SCC(=O)Nc3cc(F)ccc3F)n3[nH]c(=O)cc3n2)cc1 -19.6%
Cc1ccc(CSc2nc(-c3ccccc3C)nc3c2Cc2c(CO)cnc(C)c2O3)cc1 -24.9%
O=C(CC1N=C2c3ccccc3N=C(SCc3ccc(Cl)cc3)N2C1=O)NCCc1ccccc1 (stereo not given) 14.2%
CC(=O)N1CCc2c(sc3c2c(=O)n(CCc2ccccc2)c(=O)n3Cc2ccc(F)cc2)C1 -15.5%
CC(=O)N1CCc2c(sc3c2c(=O)n(Cc2ccccc2)c(=O)n3Cc2ccccc2F)C1 -17.2%
O=C(Nc1cccc(Cl)c1)C1CCCN(c2nn3cc(-c4ccc(F)cc4)nc3s2)C1 (stereo not given) -10.1%
CCOc1ccc(C(=O)c2cn(CC(=O)Nc3ccc4c(c3)OCO4)c3ccc(OC)cc3c2=O)cc1 -8.49%
COc1ccccc1CNC(=O)CSc1nc2nc(C)c(Cc3ccccc3Cl)c(C)n2n1 -14.1%
CCOc1ccc(CCNC(=O)c2nc(-c3cccc(F)c3)n3c2CCCCC3)cc1OCC -12%
COc1ccc(C(=O)N(Cc2ccc(N(C)C)cc2)Cc2ccco2)cc1Cl -0.171%
CCN(CC)C(=O)c1ccc2c(c1)N(Cc1ccc(C(F)(F)F)cc1)C(=O)c1ccccc1S2 -4.88%
CCOC(=O)C1CCCN(c2nc3c(S(=O)(=O)c4ccc(CC)cc4)nnn3c3ccc(Cl)cc23)C1 (stereo not given) -1.46%
CCOC(=O)c1cccc(NC(=O)c2oc3c(c2C)-c2[nH]ncc2CC3)c1 -11.2%
O=C(COc1ccccc1)NCc1ccc2c(c1)CCN2C(=O)c1ccc(F)cc1 -5.84%
Cc1cccc(CNC(=O)c2oc3c(c2C)-c2nn(Cc4ccccc4Cl)cc2CC3)c1 17.7%
Cc1ccc(Cl)cc1NC(=O)c1oc2c(c1C)-c1[nH]ncc1CC2 28.2%
Cc1ccc(Nc2c(-c3ccc(C)cc3)nc3cnccn23)cc1 -6.72%
O=C(Cc1ccc(F)cc1)N1CCC(c2nc3c(nnn3Cc3ccc(Cl)cc3)c(=O)[nH]2)CC1 -5.41%
